Among all 46,000 compounds or so, about 60 (0.1%) were called active. Inconclusive results (about 3%) are left out. Calls follow the shape of the dose curve; as a rule, active = well fitted inhibition curve with a large enough effect; inconclusive = small, poorly fitted or top-dose-only effect; inactive = no such curve, though single readings can be large or run the other way. The list shows a part of the results.

This test in a line: Primary qHTS assay for Inhibitors of ovarian cancer metastasis using an organotypic tumor microenvironment (TME) model. Also: nearly all actives have a fitted effect of over 65% in size.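 As to activity change, negative = inhibition: plate controls were DMSO wells for no effect and tomatine positive control wells for full effect.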 Particulars: SKOV3ip1-GFP adhesion/invasion on 3D omental model, fluorescence; series mostly up to 45.8 µM; activity change, negative = inhibition: at the top concentration. An outline of the steps:
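qHTS, 4-pt dose (0.36-46 umol/L); SKOV3ip1-GFP, 1,200 cells/well, no FBS; primary omental fibroblast/mesothelial co-culture 48 h pre-grown; 2 h RT + 16 h 37 C; PBS wash, 4% PFA; GFP count 488/509 nm.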
A general note: In qHTS, concentration-response curves come from the screen itself.
On to `COc1cc(NC(=O)c2nnn(Cc3ccc(F)cc3)c2N)cc(OC)c1`, for which the compound was classed as inactive.

Take `CCn1c(SCc2ccccc2)nnc1-c1nonc1NC(C)=O`: the “activity change, negative = inhibition” value was inactive: 4.79%.

With `Cc1[nH]n2c(=O)cc(-c3ccccc3Cl)nc2c1-c1ccccc1`, the compound was classed as inactive.

For `O=C(NCCCc1nc2ccccc2n1Cc1ccccc1Cl)C1CCCCC1`, the “activity change, negative = inhibition” value was inactive: 0.627%.

For `CC(=O)C1=C(OC(=O)C(C)C)c2ccccc2S(=O)(=O)N1Cc1ccccc1`, the “activity change, negative = inhibition” value was inactive: 3.58%.

On to `CCC(=O)N1CCc2cc(Br)cc(S(=O)(=O)NCCc3ccc(OC)c(OC)c3)c21`, for which the call was inactive.

With `CCOC(=O)C1CCCN(C(=O)Cn2ncc3c([nH]c4ccccc43)c2=O)C1` (stereo unspecified), the “activity change, negative = inhibition” value was inactive: 3.55%.

Consider `Cc1ccc(CNC(=O)CC2Oc3ccccc3NC2=O)cc1` (stereo unspecified), for which the result was inactive.

`CCN(C(=O)CSc1nc2ccccc2n1CC(=O)Nc1cccc(C#N)c1)c1ccccc1`: the “activity change, negative = inhibition” value was inactive: -10.9%.

For the compound `Cc1cc(NC(=O)CN2C(=O)C(C)(C)c3ccccc32)ccc1Br`, the “activity change, negative = inhibition” value is inactive: -2.56%.

Turning to `CC(C)c1ccc(NS(=O)(=O)c2ccc3[nH]cc(C(=O)NC4CCCC4)c(=O)c3c2)cc1`, the “activity change, negative = inhibition” value is inactive: 1.47%.

As for `Cc1ccc(N2CC3=C(C2=O)C(c2ccc(Br)cc2)NC(=O)N3C)cc1` (stereo unspecified), the “activity change, negative = inhibition” value is inactive: 1.79%.

As to `Cc1ccccc1Nc1sc(C(=O)c2ccc3c(c2)OCO3)c(N)c1S(=O)(=O)c1ccccc1`, the outcome was inactive.

With `Cc1ccc(-c2nc(C(=O)NCc3ccc(Cl)cc3)c3n2CCCCC3)cc1`, the “activity change, negative = inhibition” value is inactive: -19.7%.

Turning to `O=C1Cc2cc(S(=O)(=O)N3CCN(c4ccccc4)CC3)ccc2N1`, the “activity change, negative = inhibition” value is inactive: -7.64%.

Turning to `CCn1c(=O)cc(SCC(=O)Nc2ccc(C)c(F)c2)c2ccccc21`, the “activity change, negative = inhibition” value was inactive: 0.735%.

In the case of `O=C(Cn1c(=O)oc2cc(S(=O)(=O)N3CCCCCC3)ccc21)Nc1cccc(C(F)(F)F)c1`, the “activity change, negative = inhibition” value was inactive: 5.68%.

Turning to `Cc1ccccc1CNC(=O)c1ccc(NC(=O)c2nsc3ccccc23)cc1`, the “activity change, negative = inhibition” value is inactive: 0.177%.

Take `CCc1ccccc1N(C)C(=O)c1cn(CC(C)C)c(=O)c2cc(OC)c(OC)cc12`: the “activity change, negative = inhibition” value was inactive: -6.15%.

As to `Cc1nn(CC(=O)NCc2ccco2)c(=O)c2cc3ccccc3n12`, the outcome was inactive.

Take `O=S(=O)(NCCNCC=Cc1ccc(Br)cc1)c1cccc2cnccc12`: the “activity change, negative = inhibition” value is inactive: 7.87%.

Consider `Cc1cccc(NC(=O)Nc2nnc(N(C)C3CCCCC3)s2)c1C`, for which the “activity change, negative = inhibition” value was inactive: -4.18%.

As to `CCOc1ccccc1-n1ccnc(NCc2ccc(F)cc2)c1=O`, the “activity change, negative = inhibition” value is inactive: 8.28%.

With `COc1ccc(-c2nn(CC(=O)NC3CCCC3)c3c2cnc2ccc(F)cc23)cc1`, the “activity change, negative = inhibition” value is inactive: 6.91%.

Consider `O=C(CCC(=O)N1Cc2ccccc2Oc2ncccc21)Nc1ccc(Cl)cc1`, for which the “activity change, negative = inhibition” value is inactive: 22.9%.

For `CC[C@H]1OC(=O)[C@H](C)[C@@H](O[C@H]2C[C@@](C)(OC)[C@@H](O)[C@H](C)O2)[C@H](C)[C@@H](O[C@@H]2O[C@H](C)C[C@H](N(C)C)[C@@H]2O)[C@](C)(O)C[C@@H](C)CN(C)[C@H](C)[C@@H](O)[C@]1(C)O`, the “activity change, negative = inhibition” value is inactive: 0.441%.

For `O=C(Cn1ncc2c(=O)oc3ccccc3c21)Nc1cc(F)ccc1F`, the “activity change, negative = inhibition” value was inactive: -8.7%.

Take `COc1ccc(OC)c(NC2=C(c3ccccc3)C(=O)c3ccccc32)c1`: the “activity change, negative = inhibition” value is inactive: -3.81%.

With `COc1ccc(N2CCN(C(=O)c3cc4c(-c5ccccc5F)nn(C)c4s3)CC2)cc1`, the “activity change, negative = inhibition” value was inactive: -0.336%.

Take `COC(=O)c1ccc(Cl)cc1NC(=O)N1CC=C(c2c[nH]c3ccccc23)CC1`: the “activity change, negative = inhibition” value was inactive: -0.405%.

Turning to `CC1CCN(S(=O)(=O)c2ccc3c(c2)N(CC(=O)NCc2ccccc2)C(=O)CO3)CC1`, the call was inactive.

In the case of `O=C1CS(=O)(=O)C2(C(=O)N(Cc3cccc(F)c3)c3ccccc32)N1c1ccccc1` (stereo unspecified), the “activity change, negative = inhibition” value is inactive: -2.63%.

For `COc1ccc(/C=C(\C#N)c2nc(-c3cc(Cl)ccc3OC)cs2)cc1`, the “activity change, negative = inhibition” value was inactive: -3.36%.

Consider `COc1ccc2c(CNCC(C)c3ccccc3)c(C(=O)O)n(Cc3ccc(F)cc3Cl)c2c1` (stereo unspecified), for which the compound was classed as inactive.

As for `Cc1cccc(OCCCC(=O)Nc2sc3c(c2C(N)=O)CCC(C)C3)c1` (stereo unspecified), the “activity change, negative = inhibition” value was inactive: 0.314%.

Turning to `CCN(CC)c1nc(-c2ccc(C(C)(C)C)cc2)nc2ccccc12`, the “activity change, negative = inhibition” value was inactive: -3.47%.

As for `Oc1ccccc1Nc1nc(-c2ccccc2)c2cc(Cl)ccc2n1`, the “activity change, negative = inhibition” value is inactive: -10.9%.

For `O=C(CSc1nc2nccnc2c(=O)n1CCc1c[nH]c2ccccc12)Nc1ccccc1F`, the “activity change, negative = inhibition” value is inactive: -3.48%.

Regarding `CCOc1ccc(NC(=O)c2ccc(NC(=O)CCS(=O)(=O)c3cccs3)cc2)cc1`, the “activity change, negative = inhibition” value is inactive: -8.27%.

In the case of `COc1cc(OC)c(NC(=O)c2c(C)oc3ncn(C)c(=O)c23)cc1Cl`, the “activity change, negative = inhibition” value was inactive: 7.77%.

For `CCOc1ccc(CCNC(=O)CCc2c(C)nc3c(c(C)nn3-c3ccccc3)c2C)cc1OCC`, the outcome was inactive.

`Cc1ccc(Cc2nc3ccccc3nc2SCC(=O)N2CCc3ccccc32)cc1`: the “activity change, negative = inhibition” value is inactive: 3.06%.

As to `CCn1cc(C(=O)N2CCN(c3cccc(Cl)c3)CC2)c(=O)c2cc(S(=O)(=O)N3CCOCC3)ccc21`, the “activity change, negative = inhibition” value is inactive: -8.04%.

Take `Cc1ccc(C2CC(=O)N(Cc3ccccc3F)c3c2c(C)nn3-c2nc(C)cc(C)n2)cc1` (stereo unspecified): the “activity change, negative = inhibition” value was inactive: 1.6%.

With `Cc1ccc(NC(=O)c2nc(S(C)(=O)=O)ncc2N(Cc2ccccc2)Cc2ccco2)c(C)c1`, the “activity change, negative = inhibition” value was inactive: 0.184%.

In the case of `Cc1c(NC(=O)c2cc([N+](=O)[O-])ccc2N2CCOCC2)cccc1-c1nc2ccccc2o1`, the compound was called inactive.

For the origin of these results see PubChem BioAssay AID1963576 (National Center for Advancing Translational Sciences (NCATS), 2024).
